Results on 43 molecules are retold here after ChEMBL document CHEMBL4888484, “Replenishing the malaria drug discovery pipeline: Screening and hit evaluation of the MMV Hit Generation Library 1 (HGL1) against asexual blood stage Plasmodium falciparum ,using a nano luciferase reporter read-out” (2022).

The structures appear in SMILES notation. Out of some 150,000 compounds screened, about 540 (0.36%) showed an effect of 50% or more. The list shows a part of the results.

This experiment has as its system Plasmodium falciparum. Briefly: Primary screen in NF54 nanoGlo assay, in single point, at 2uM, 72h; a lower Z score goes with more inhibition. The experiment is classed as functional, Erythrocyte. Conditions: timepoint 72 hour.
The term % Inhibition denotes the relative decrease from the control value, in per cent. Regarding `Cc1ccc2nc(-c3ccc(NC(=O)c4ccc(F)cc4)cc3)ccc2c1`, the “% Inhibition” value was -7% and the Z score was 1.01.
On to `Nc1nccnc1C(=O)Nc1cccc(NC(=O)c2ccccc2)c1`, for which the “% Inhibition” value is given as -11% and the Z score came to 2.
The corresponding values for `C#CCNC(=O)[C@@H](NC(=O)c1ccnn1C(C)C)[C@@H](C)O` are -3% and 0.57.
The corresponding values for `CC(C)N(CC(N)=O)Cc1ccccc1C(F)(F)F` are -8% and 1.14.
The corresponding values for `CCOC(=O)CCC(=O)NCCn1ccc(-c2cnccn2)n1` are 20% and -2.52.
Turning to `O=C(NCc1noc(Cc2ccccc2)n1)c1coc(-c2ccccc2)n1`, the “% Inhibition” value is 4% and the Z score is listed as -0.64.
Turning to `CN1CC[C@H](C(=O)NC2CCN(Cc3cccs3)CC2)CC1=O`, the “% Inhibition” value was -9% and the Z score was 1.77.
The corresponding values for `Cc1ccc(C)c(S(=O)(=O)N2CCC(O)(c3nccn3C)CC2)c1` are -7% and 0.78.
Take `CCc1nc2cc(N3CCCC(C(=O)NCC4CCCO4)C3)cnc2nc1CC` (stereo unspecified): the “% Inhibition” value is listed as -2% and the Z score was determined as 0.44.
For `CCc1nnc(CN(C(=O)CCc2nncn2C)C(C)C)o1`, the “% Inhibition” value is -10% and the Z score came to 1.47.
The corresponding values for `O=C1NCCN(Cc2cnn(CC(F)F)c2)c2ccccc21` are -16% and 2.87.
The corresponding values for `COC(OC)C(=O)N1CCN(CCO[C@@H]2CCCCO2)CC1` are -5% and 0.91.
In the case of `O=C(NCCc1ccc(O)cc1)C(=O)Nc1cccc2nonc12`, the “% Inhibition” value is given as -1% and the Z score is 0.13.
Turning to `CCO[C@H]1COC[C@@H]1NC(=O)c1cc2cc(C)ccn2n1`, the “% Inhibition” value is reported as -12% and the Z score amounted to 1.31.
Turning to `CC(=Cc1cncs1)c1cnccn1`, the “% Inhibition” value was -7% and the Z score is 1.42.
For `Cc1cc(NC(=O)Cn2c(=O)n(CCc3ccccc3)c(=O)c3ccccc32)no1`, the “% Inhibition” value was 35% and the Z score was -4.02.
For `OC(CN1CCCC(c2nc3ccccc3s2)C1)c1ccccc1` (stereo unspecified), the “% Inhibition” value was -13% and the Z score is given as 1.44.
The corresponding values for `COc1ccc(Nc2c3c(nc4c(-c5ccccc5)c(C)nn24)CCC3)cc1` are 11% and -1.54.
Regarding `Cc1ccc(F)cc1S(=O)(=O)Oc1cccc(-n2cncn2)c1`, the “% Inhibition” value is reported as -23% and the Z score came out at 2.08.
Consider `COc1ccc(N(C(=O)c2ccc(C)cc2)C(C)(C)C(=O)Nc2c(C)cccc2C)cc1`, for which the “% Inhibition” value is -5% and the Z score came to 0.68.
For `CC(c1ccccc1)N1CC(C(=O)N2CCN(C(=O)c3ccccc3Cl)CC2)CC1=O` (stereo unspecified), the “% Inhibition” value is 0% and the Z score was -0.05.
As to `CCc1ccc(CNC(=O)C2CCN(c3ncnc4c3oc3ccccc34)CC2)cc1`, the “% Inhibition” value is on record as -9% and the Z score was found to be 1.58.
Take `CCC[C@]1(O)CCC12CCN(C(=O)c1ccn(CC)n1)CC2`: the “% Inhibition” value is -3% and the Z score was 0.32.
The corresponding values for `Cc1cc(C)n2cc(CN3CCCC[C@@H]3Cn3cncn3)nc2n1` are 2% and -0.2.
The corresponding values for `C=CCCC(=O)N1CCC(OC2CCC(C)CC2)CC1` (stereo unspecified) are -11% and 1.73.
For `Cc1ccc(OCCN2CCN(C)[C@]3(CCC(=O)N(C)CC3)C2)c(Cl)c1`, the “% Inhibition” value is -1% and the Z score is on record as 0.11.
The corresponding values for `COCCCN1C(=O)C[C@](CC(=O)N(C)CCn2nc(C)cc2C)(c2ccccc2OC)C1=O` are -4% and 0.87.
The corresponding values for `CC(C)c1cccc(OC(C(=O)N2C3CCC2CC(O)C3)c2ccccc2)c1` (stereo unspecified) are -2% and 0.26.
The corresponding values for `CC(=O)N1c2cc(S(=O)(=O)Nc3ccc(Br)cc3F)c(Br)cc2C[C@@H]1C` are -1% and 0.05.
Take `CCCCCc1nnc(NC(=O)[C@@H](c2cccnc2)N(C)C)s1`: the “% Inhibition” value was 1% and the Z score is -0.14.
The corresponding values for `CCN(Cc1nc(C)no1)C(=O)c1cc(CC(C)C)no1` are -10% and 1.94.
The corresponding values for `CC(C)(C)OC(=O)N1CCN(Cc2ccc(-n3cccn3)cc2)CC1` are -1% and 0.23.
As for `Cc1nn(C(C)C)c(C)c1Nc1ccc2nnnn2n1`, the “% Inhibition” value is 3% and the Z score is -0.47.
Consider `Cc1cc(C)n2ncc(CN3CCC(c4ncon4)CC3)c2n1`, for which the “% Inhibition” value was -3% and the Z score is reported as 0.39.
The corresponding values for `C[C@H]1OCCN(Cc2c(Br)cnn2C)[C@@H]1C(N)=O` are -7% and 1.4.
The corresponding values for `c1nc(N2CCCC2)ncc1-c1nc([C@H]2CCOC2)no1` are -7% and 1.28.
Consider `Cc1cc(C)c(S(=O)(=O)N2CCC[C@H]2c2nncn2C)s1`, for which the “% Inhibition” value came out at 2% and the Z score is recorded as -0.24.
Consider `CN1CCO[C@H](C(=O)Nc2cc(S(=O)(=O)N3CCCC3)ccc2O)C1`, for which the “% Inhibition” value is on record as -2% and the Z score came to 0.24.
Turning to `CC(C)c1nc(Nc2ccc(OCCO)cc2)nc(N(C)C)n1`, the “% Inhibition” value is -7% and the Z score was 0.79.
The corresponding values for `COCCn1cnc(-c2ccccc2)c1-c1cccc(Cn2cccn2)c1` are -7% and 1.42.
For the molecule `Cc1nc2ccccn2c1CN1C(=O)CN(c2ccccc2)C1=O`, the “% Inhibition” value is on record as -5% and the Z score was 0.75.
On to `Cn1nccc1-c1cncc(CNC(=O)c2cscn2)c1`, for which the “% Inhibition” value is given as 8% and the Z score was -1.04.
For `CNc1oc(-c2ccc(Cl)cc2Cl)nc1S(=O)(=O)c1ccc(Cl)cc1`, the “% Inhibition” value was -17% and the Z score is given as 1.54.
